# Measured values: the supplement of paper PMC11417369
# This is one part of the list.
# Test system: PfSIP2 AP2 domain 1 (GST-tagged)
# Test: gcPBM binding intensity (ln(normalized median fluorescence intensity)); higher = stronger DNA binding
# In short: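 In this array assay, P. falciparum DNA-binding domains with a GST tag, expressed in E. coli, were applied for 1 h to primer-extended double-stranded 36-bp intergenic genomic probes and negative controls on an Agilent 4 × 180k array. Bound protein was visualised with Alexa488 anti-GST antibody at 488 nm. Binding intensity is the highest Masliner-normalised natural-log median intensity across replicate spots of either probe orientation.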
row,Sequence,gcPBM binding intensity (ln)
1,TTTAATTTTTTTAATTCACACATTATTCCATCCTTT [CACACA_site5480],6.9
2,AATAAATAAGCAACATGTACATACAAATATATACAT [XGTACX_site8529],7.11
3,ATTTTCCATTGTGCTACACACAACGGTTCGCAATAA [CACACA_site2974],7.1
4,ATCTAATAAAAATACACACACATATGATTTGTGAAT [CACACA_site1867],6.86
5,TAAAAAAAATAGTCAAGTACATAAGAAGGGAAGAAA [XGTACX_site8733],7.02
6,TTATTCATATTATCATGTACTTATATATATTGTCAT [XGTACX_site2231],7.01
7,ACTAAAAGATATATAATTTCTTTCTTATTTATTTTT [CACACA_negctrl_site842],6.82
8,AAAAAAACATGAAACACACACAAATATTTATTTATA [CACACA_site6967],6.91
9,TGTTTCCAAAAAAAAAAAAAAAAAAAAAAAAAAAAA [CACACA_negctrl_site358],7.1
10,TTTTGTTTATTATGATTCAAAATGATTTTATCTTTG [TGCATGCA_negctrl_site425],6.71
11,TATTATATATATAAATGTACTTATTTTAATTCCCCT [XGTACX_site8638],7.07
12,TGTAATATAAAATTTTGTACTCAAAAATTTATATAT [XGTACX_site3252],7.12
13,ACTTATAAAAACATATACCCCATCGCATTTTTTCCA [XGTACX_negctrl_site177],6.9
14,AATTTTTTATATGTCACACATTTATTATTATTATTA [CACACA_site4198],6.9
15,TTTATTAGTAATTATACACACATATAAAATGAATAA [CACACA_site6754],7
16,TATATTTATAGGTACACACACACATATAAATAAATA [CACACA_site6345],7.42
17,ATAAAATTATATTTTGCATGCAGGCCTTTTTCTTAA [TGCATGCA_site1030],6.76
18,AAAAAAAAAAAAAACACACACATATATATATATATA [CACACA_site1891],9.44
19,TTCCAAAAAGTTATTACACACATATGTGCACATATA [CACACA_site6465],9.48
20,TTCCAAACCTCATTATGGAAAATAAAAAAATAAAAA [XGTACX_negctrl_site17],6.87
21,ATAAAATATTTTTGAACATGCAGGTAAAAAATAAAA [TGCATGCA_site1019],7.05
22,AGAATATTATATTATGCATGCATATAGAAAAATATA [TGCATGCA_site302],7.1
23,TGTATAAGTATTAATACACACACAAAATAATAAAAA [CACACA_site9156],7.18
24,TACTTACATTATTTATTTATATAAAAAGTTAATTAT [XGTACX_negctrl_site433],7.04
